T1: UNK ZnF1-3 (human, UniProt Q9C0B0 31-174)
T1 sequence: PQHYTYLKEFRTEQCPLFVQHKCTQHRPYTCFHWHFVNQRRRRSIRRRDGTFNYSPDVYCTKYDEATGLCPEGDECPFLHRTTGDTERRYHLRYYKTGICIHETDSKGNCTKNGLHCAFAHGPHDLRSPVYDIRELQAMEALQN

B1: chr1:58468927:58468928:-_ENSMUSG00000026034_ENSMUST00000148330|mus_mus|mus_mus_mus_hu_False|48_88 (ssRNA)
RNA: GGGAGUUCUACAGUCCGACGAUCAAUUACUGAAAAAGAUGUUCAUUUAUUUGGUUUUGUACUUAAUGAACCAAAUUACCCAAACAACAUAAAAUGUGCAAUAUAAAAAUGUUAAGAAUUUACAAAGCUGUACAAAAUAACUUACAACAGAGGAUUGAGCAUCA
B2: chr19:16212804:16212805:+_ENSG00000167460_ENST00000300933|hu_mus|hu_hu_hu_mus_False|38_88 (ssRNA)
RNA: GGGAGUUCUACAGUCCGACGAUCAACAAUUCUGGAGUGAAGGAAAGCAUCAAGGAUGAACAGCAUUAAAGCUCAGUCAGAAGGCACAUGGGCAACAAUGACUAUUUCAGCAUUCUCGCUUGGAAUGCUUAAAGACAAUCUGUUCAACAGAGGAUUGAGCAUCA
B3: chr16:17389515:17389516:-_ENSMUSG00000041720_ENSMUST00000036161|mus_hu|FALSE|FALSE (ssRNA)
RNA: GGGAGUUCUACAGUCCGACGAUCUCAGAUUCAAUCAGAAAAAUGCCCAAUGCAAUCACUGCAUCUCUCCGUCUUUCAUCUAACUGGAAGAUCCCAUGGAAAUCCACUGGACACAUGCAAAGAAGCUUUUGGACCUUCUCCAAGCAACAGAGGAUUGAGCAUCA
B4: chr1:45478652:45478653:+_ENSG00000126088_ENST00000246337|hu_hu|FALSE|FALSE (ssRNA)
RNA: GGGAGUUCUACAGUCCGACGAUCGCAGGCCUCAGGAGAGCGACACGUGCUGAAAAAGUCCUGGGCAGCCCGGGUUUCCCUAAACUCUGGUAAGUAACGGCCUGCCUGGCGCAUGCACCAAACGGGAGUGUAGUCUGUUUCCUCCAACAGAGGAUUGAGCAUCA
B5: chr10:112362727:112362728:-_ENSMUSG00000074748_ENSMUST00000099276|mus_hu|motif|central (ssRNA)
RNA: GGGAGUUCUACAGUCCGACGAUCGAUCCCAGCAUGCGAUAAUGCCAGGCAGUGGUCCCUGGGCAUGCGAUGGUGGGAACGGAUGUAUGGAAGAAAAAGCCACAAACCACAGAAAUUUUAAAGAACCCCCCCCUUCCCCCAUAACAACAGAGGAUUGAGCAUCA
B6: chr14:78183846:78183847:+_ENSG00000119705_ENST00000557342|hu_hu|hu_hu_hu_mus_False|88_88 (ssRNA)
RNA: GGGAGUUCUACAGUCCGACGAUCUCUCAGAAAUCUUUCUUCAUCAGCAUCAUCAGAUCCGUGCAAAGCCUUUGCUCUUUGAGCUUGAACGUGGAUCUAUGGGAGGGAAAGCACUGUCAGAAAAGGUAAUUUUUUUUUUAAAGACAACAGAGGAUUGAGCAUCA
B7: 2656068_2656188_392_CDS_ENSG00000101596_ENST00000320876|human|control|control (ssRNA)
RNA: GGGAGUUCUACAGUCCGACGAUCGGACUCCUUUUCGCGCCGAUCAAACAAGUACACCGUCCUGUGGCCGACGCCUCCGCCAUCCUCCUCAGUCCCCACAGAGGCCCCACCAGGCCCGCCGCCGUCCGCCGCUGCCAUAUUGGGCAACAGAGGAUUGAGCAUCA
B8: chr2:179515052:179515053:+_ENSMUSG00000000305_ENSMUST00000000314|mus_hu|mus_mus_mus_hu_False|58_78 (ssRNA)
RNA: GGGAGUUCUACAGUCCGACGAUCGCUGUCCCAUGCAGUCACCGUGAACGCCACCUGCUCUGAGGGGACCUGCAGCUCCCUAGUGGCGAAGACUGUCCCAUCUGCCCCAACUUUGAAGUCCAUGCUGUUGGUCUCAUAUUGUGUCAACAGAGGAUUGAGCAUCA
B9: chr13:76104392:76104393:-_ENSG00000188243_ENST00000355801|hu_mus|motif|central (ssRNA)
RNA: GGGAGUUCUACAGUCCGACGAUCAUACUUGAGAGAUCUGCAGCUGUCAGAGCUCACAGCCAUGCCCAGUUUCCACUGAAAAUCGGUAAGCUGGCCCGUGACCUCCGACUUGGCAUCCAGCACGGGCUCCCUGAACCCAGACUCCAACAGAGGAUUGAGCAUCA
B10: chr14:66974463:66974464:+_ENSMUSG00000022044_ENSMUST00000074523|mus_hu|mus_mus_mus_hu_False|1_1 (ssRNA)
RNA: GGGAGUUCUACAGUCCGACGAUCUUGUAGGACGACUUAUUCAGGGGAUCGGCCAGGAAGCAGGAGCAGAACAAGGACACCAGCGGGAGCUCCUUCAUCUUCUCUUUGUAGGCAGCAAGGGUCAUGUUUCUGGGAUCCUGGUGGCAACAGAGGAUUGAGCAUCA
B11: 55349184_55349304_3716_3pUTR_ENSMUSG00000021488_ENSMUST00000099490|mouse|control|control (ssRNA)
RNA: GGGAGUUCUACAGUCCGACGAUCGGAUCUGCUGCUGAGUCCUCAGGUUUACUUGUAGGAGGAGCUCUUUGUUCUAAGUAGUCUUCCCGGGCCUUCUGCACAGCGUCAGCAGGAAGUAAGACUCCAAAAGCACCCUCCGAGUUUCAACAGAGGAUUGAGCAUCA
B12: chr5:38529146:38529147:-_ENSMUSG00000029126_ENSMUST00000031009|mus_hu|FALSE|FALSE (ssRNA)
RNA: GGGAGUUCUACAGUCCGACGAUCAAAAAUUAAAGUAGCUCAAGCUUACCAGAAAUUACAUUUCCACUUUUCCCACCCAGCUCAUUUCUUUAAAAACUAAUGGGGCUAUUGGUGCAAAUUUAUUCAUAAUAGAAGUGAACCAGACAACAGAGGAUUGAGCAUCA
B13: 50586550_50586670_1272_3pUTR_ENSG00000204977_ENST00000378182|human|control|control (ssRNA)
RNA: GGGAGUUCUACAGUCCGACGAUCAUUCUUCUUUUGAUCCAGUGUGUGUUGUAACUUCUCAAAAAAUUCCUUCACUUUAUCUGAAUCUUUAGUCAGUAACUGUAGGGAUUUCCUCUUACUAGUUUCCAAGGUAUCCAAGCGAGACAACAGAGGAUUGAGCAUCA
B14: chr1:58468927:58468928:-_ENSMUSG00000026034_ENSMUST00000148330|mus_mus|mus_mus_mus_hu_False|88_88 (ssRNA)
RNA: B1 RNA with C87A, A93C, U94A, G95U, U96G

Where a chain is given by its changes, count along the chain named. The list shows a part of the results.

The target of the assay is T1, UNK ZnF1-3. Put plainly: nsRBNS (natural sequence RNA bind-n-seq); RBNS binding buffer (assumed for nsRBNS): 25 mM Tris pH 7.5, 150 mM KCl, 3 mM MgCl2, 0.01% Triton X-100, 500 ug/ml BSA, 20 U/ml SUPERase-In, 4 C; UNK is unkempt and MSI1 is Musashi-1; names of the RNAs are library labels; protein concentration not given here; high values mean tight binding.
As to B1, the binding signal came to 1.68 enrichment R. Take B2: the binding signal is 1.25 enrichment R. B3 gave a binding signal of 0.888 enrichment R. B4 displayed a binding signal of 1.04 enrichment R. As to B5, the binding signal is 2.14 enrichment R. B6 gave a binding signal of 2.04 enrichment R. Consider B7, for which the binding signal amounted to 1.28 enrichment R. As to B8, the binding signal was determined as 0.759 enrichment R. Molecule B9 showed a binding signal of 0.268 enrichment R. In the case of B10, the binding signal was 1.77 enrichment R. B11 displayed a binding signal of 0.755 enrichment R. B12 yielded a binding signal of 1.36 enrichment R. Regarding B13, the binding signal amounted to 0.599 enrichment R. Molecule B14 came in with a binding signal of 1.36 enrichment R.

Values taken from PMC12136788.
